Source: PubChem BioAssay AID1963576 (National Center for Advancing Translational Sciences (NCATS), 2024)
Out of some 46,000 compounds screened, about 60 (0.1%) were called active. About 3% were inconclusive and are not listed. The call rests on the fitted dose curve; in most records, active means well fitted inhibition curve with a large enough effect; inconclusive means small, poorly fitted or top-dose-only effect; inactive means no such curve, though single readings can be large or run the other way. The list shows a part of the results.

test: Primary qHTS assay for Inhibitors of ovarian cancer metastasis using an organotypic tumor microenvironment (TME) model.; further: nearly all actives have a fitted effect of over 65% in size;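 on activity change, negative = inhibition: plate controls were DMSO wells for no effect and tomatine positive control wells for full effect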; conditions: SKOV3ip1-GFP adhesion/invasion on 3D omental model, fluorescence; series mostly up to 45.8 µM; activity change, negative = inhibition: at the top concentration
Summary of the method: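 Adhesion/invasion was scored as fixed GFP-labeled SKOV3ip1 cell counts (488/509 nm), normalized to DMSO and tomatine controls. Cancer cells in serum-free medium, with four compound doses (0.36-46 umol/L), sat 2 hr at RT then 16 hr at 37 C on a 48 hr fibroblast/mesothelial/ECM culture.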

outcome, inactive:
COc1ccc(C2C(=O)N(C3CCCCCC3)CC(=O)N2Cc2ccc(C)cc2)cc1 (configuration not stated)
COc1ccc(-n2c(=O)c3ccccc3n(CC(=O)Nc3ccccc3OC)c2=O)cc1
CSc1ccc(CCNC(=O)CCn2c(=O)c3cccn3c3ccc(F)cc32)cc1
CCOC(=O)c1c(NC(=O)c2cc3ccccc3c(=O)o2)sc2c1CCC(C)C2 (configuration not stated)
CCOc1ccc(CCNC(=O)c2ccc3c(c2)c(C)c(C)n3Cc2ccccc2)cc1OCC
Fc1cccc(-n2ncc3c2ncn2nc(Cc4ccccc4)nc32)c1
Cc1ccc2nc3sc(C(=O)NCCCN(C)c4ccccc4)cc3cc2c1
CC(C)NC(=O)c1nn(-c2ccccc2F)nc1CO
Cc1ccc2c(c1)-c1ncc(C(=O)c3ccccc3O)cc1CO2
Cc1cc(C)cc(NC(=O)CSc2nc(-c3ccccc3)c3cc(F)ccc3n2)c1
CCCCCOC(=O)CSc1ncnc2sc3c(c12)CCC(C)C3 (configuration not stated)
CC(=O)c1ccc(NC(=O)c2cc3sccc3n2Cc2ccc(F)cc2)cc1
O=C(COc1ccccc1)OCc1cc(=O)n2nc(C3CC3)sc2n1
COc1cc(-c2nnc(SCCOc3ccc(Cl)cc3)o2)cc(OC)c1OC
CCc1ccc(CNC(=O)CCCN2C(=O)CCn3nc(-c4cccn4C)cc32)cc1
COc1ccc(NC(=O)CCCN2C(=O)C(c3ccccc3)Oc3cccnc32)c(OC)c1 (configuration not stated)
CC(=O)N1CCc2c(sc3c2c(=O)n(Cc2ccccc2)c(=O)n3Cc2ccc(C)cc2)C1
CCOC(=O)c1c(C)oc2ncnc(Nc3ccc(OC)cc3OC)c12
COc1ccccc1NC(=O)CSC1=Nc2ccccc2C2=NC(CCC(=O)NCCc3ccccc3)C(=O)N12 (configuration not stated)
CCOc1ccccc1CNC(=O)C1CCN(S(=O)(=O)c2ccc3[nH]c(=O)ccc3c2)CC1
COc1ccc(-c2noc(CSc3nnc(C)n3-c3ccc(C)cc3)n2)cc1OC
CN1C(=O)Cc2cc(S(=O)(=O)NCCc3ccc(Cl)cc3)ccc21

Activity change, negative = inhibition, inactive:
Cc1csc(NC(=O)c2sc3nc4c(c(C(F)(F)F)c3c2N)CCC4)n1 19.1%
Cc1ccc(S(=O)(=O)n2nc(-c3ccccc3)nc2NCc2ccc(Cl)cc2)cc1 22.3%
COc1cc(OC)cc(C(=O)Nc2cc3c(cc2N2CCCC2)n(C)c(=O)c(=O)n3C)c1 0.732%
Cc1ccc(SCC(=O)Nc2ccc3oc(-c4ccccc4C)nc3c2)cc1 -6.7%
Cc1ccc(CNC(=O)c2cc(C)nc3c2c(C)nn3-c2ccc(C)cc2)cc1 0.363%
CCN(CC)CCCCNc1ncc2cc(-c3cc(OC)cc(OC)c3)c(NC(=O)NC(C)(C)C)nc2n1 -7.03%
CC(=O)c1ccc(NC(=O)c2cnn(-c3cccc(F)c3)c2-n2cccc2)cc1 1.11%
COc1ccc(NC(=O)CSc2nc(-c3ccc(F)cc3)[nH]c2-c2ccc(C)cc2)cc1OC -3.03%
COc1ccc(S(=O)(=O)c2c(O)c3ccc(C(=O)NCc4ccc(F)cc4)cc3[nH]c2=O)cc1 -8.29%
COc1cc(C2CC(=O)Nc3c2c(C)nn3-c2nncc(-c3ccc(C)cc3)n2)cc(OC)c1OC (configuration not stated) 9.63%
Cc1ccc2c(CC(=O)Nc3c(C(=O)c4ccc(C)c(F)c4)oc4ccccc34)coc2c1 -11.3%
CCOc1ccc(NC(=O)c2cnc3ccccn3c2=O)cc1 -1.98%
O=S(=O)(c1ccc(Cl)cc1)c1nc(-c2ccco2)oc1SCc1ccc(F)cc1 5.94%
COc1ccccc1NC(=O)CCCc1nnc2n(C)c(=O)c3sccc3n12 9.71%
CCOC(=O)c1cc(S(=O)(=O)NCc2ccc(C)cc2)[nH]n1 9.55%
O=C(Nc1ccc(Oc2ccccc2)cc1)C1CCN(S(=O)(=O)c2ccc(Cl)cc2)CC1 -0.589%
COc1ccc(NC(=O)CN(c2cc(C)cc(C)c2)S(=O)(=O)c2c(C)noc2C)cc1Cl 7.77%
COc1ccccc1CNC(=O)CCC1N=C2c3ccccc3N=C(SCc3ccc(C)cc3C)N2C1=O (configuration not stated) 2.29%
CC(C)(C)OC(=O)N1CCC(c2nnc(SCc3cccc(Cl)c3)o2)CC1 22%
Cc1ccc(CNC(=O)CN2C(=O)COc3ccc(S(=O)(=O)Nc4ccccc4)cc32)cc1 -4.44%
COc1ccc(NC(=O)CSc2ccc3nc(-c4ccccc4)cn3n2)cc1OC -15.1%
Cc1ccccc1Nc1c(-c2ccc(N3CCOCC3)cc2)nc2ccccn12 -6.12%
COc1ccc(-c2nc(SCC(=O)Nc3ccc4c(c3)OCCO4)c(-c3ccc(C)cc3)[nH]2)cc1OC -7.17%
Cc1ccc(C(=O)NC2=NC(c3ccc(C)cc3)CC(=O)N2)cc1 (configuration not stated) -8.07%
CCc1ccc(NC(=O)CC2C(=O)N(c3cccc(OC)c3)C(=O)N2C2CCCC2)cc1 (configuration not stated) 9.15%
Cc1cc(C)cc(NC(=O)c2cc(CN3CCCC3)on2)c1 5.15%
CCOCCCNC(=O)C1CCN(C(=O)c2cc3sccc3n2C)CC1 -0.887%
COc1ccc(CCNC(=O)CCCn2c(=O)c3cccn3c3ccccc32)cc1OC -0.904%
Cc1cc2c(cc1NC(=O)c1ccccc1C)n(C)c(=O)c(=O)n2C 10.7%
CCC(Cc1ccccc1)NC(=O)CN1C(=O)COc2ccc(S(=O)(=O)N3CCCCCC3)cc21 (configuration not stated) 8%
COc1ccccc1N1CCN(C(=O)C2CCN(S(=O)(=O)Cc3ccccc3)CC2)CC1 6.98%
CC(C)CCN(Cc1ccco1)C(=O)c1cc2c(s1)-c1ccccc1OC2 1.02%
CCc1ccc2oc(C(=O)Nc3cccc(Cl)c3C)cc(=O)c2c1 2.25%
COCc1nn2cc(-c3ccc(C)cc3)nc2s1 6.56%
Cc1ccc(C(=O)Nc2cc(-c3nc4ncccc4o3)ccc2C)c(C)c1 -4.31%
Cc1cccc(N2CCN(C(=O)Cc3c(C(=O)O)c(C)cn3C)CC2)c1C 0.163%
Cc1ccc(C(=O)c2c(N)c(-c3nc(-c4ccc5c(c4)OCO5)cs3)c3ccccn23)cc1C 2.39%
COC(=O)c1ccc(Cn2cnc3nc4c(cc3c2=O)CCCC4)cc1 -5.26%
CCOc1ccccc1NC(=O)Cn1ncc2c(=O)oc3ccc(C)cc3c21 2.41%
Cc1ccc(C(=O)N2CCc3cc(CNS(=O)(=O)c4cccs4)ccc32)cc1 -9.52%
